About 550 (1.1%) of roughly 48,000 compounds were called active. About 4% were inconclusive and are not listed. Cut-off read from the data, not from the text of the source: active = potency below about 15 µM; inconclusive = mostly about 16 µM to 33 µM; inactive = weaker than that. The list shows a part of the results.
Each compound was assayed against Lysosomal acid glucosylceramidase (Homo sapiens) (UniProt P04062) (assay: Glucocerebrosidase). Settings: purified enzyme, resorufin glucoside fluorescence (screen aimed at inhibitors), 20 min.
UniProt P04062, sequence (P04062 whole entry, looked up): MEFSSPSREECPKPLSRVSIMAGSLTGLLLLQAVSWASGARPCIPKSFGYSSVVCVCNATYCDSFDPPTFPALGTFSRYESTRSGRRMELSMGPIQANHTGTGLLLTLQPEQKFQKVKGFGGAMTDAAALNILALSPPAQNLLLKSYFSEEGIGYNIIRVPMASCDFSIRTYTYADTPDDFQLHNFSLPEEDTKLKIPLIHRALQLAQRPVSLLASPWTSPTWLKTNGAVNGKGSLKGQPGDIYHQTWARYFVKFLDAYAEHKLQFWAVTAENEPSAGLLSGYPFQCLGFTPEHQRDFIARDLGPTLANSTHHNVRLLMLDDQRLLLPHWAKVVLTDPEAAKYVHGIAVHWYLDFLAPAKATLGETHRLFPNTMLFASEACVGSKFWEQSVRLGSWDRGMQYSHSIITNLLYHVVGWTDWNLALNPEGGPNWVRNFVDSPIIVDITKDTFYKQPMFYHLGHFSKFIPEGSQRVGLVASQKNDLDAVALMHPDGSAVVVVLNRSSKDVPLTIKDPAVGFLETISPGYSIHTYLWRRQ
Outline: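 Wild-type enzyme at 0.2 nM final in 50mM citric acid/KH2PO4, 10mM sodium taurocholate, 0.01% tween-20, pH 5.9, with resorufin beta-D-glucopyranoside at 30 uM final. Compounds titrated, 20 min at RT, red fluorescence read; AC50 from titration.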
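Note: the screen sought inhibitors.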
Potency is the fitted concentration of half-maximal effect.

Potency, inactive:
O=C(CCCn1c(=S)[nH]c2cc3c(cc2c1=O)OCO3)NC1CC1 > 76.9 µM
CCCCCCNC(=O)c1c(O)c2ccccc2[nH]c1=O > 76.9 µM
COC(=O)c1ccc2c(c1)S(=O)(=O)NC(=NCc1ccco1)S2 > 76.9 µM
Cc1cc(C)cc(-c2nnc(SCC(=O)N3CCN(C(=O)c4ccco4)CC3)o2)c1 > 76.9 µM
CCOC(=O)c1cc(NC(=O)Nc2ccc(OC)c(OC)c2)c(C)nc1C > 76.9 µM
CCOC(=O)N1CCN(C(=O)CSc2nnc(-c3c[nH]c4ccccc34)n2CCOC)CC1 > 76.9 µM
CCOc1ccc2nc(NC(=O)CSc3nc4c(c(=O)n(C)c(=O)n4C)n3C(C)C)sc2c1 > 76.9 µM
CCOc1ccc(-c2n[nH]c(C)c2Oc2ccccc2OC)c(O)c1 > 76.9 µM
O=C(Nc1ccc(N2CCOCC2)c(F)c1)c1ccncc1
O=C(CSc1nnc2scc(-c3ccc(F)cc3)n12)NCc1ccco1 > 76.9 µM
COc1ccc(Cl)cc1NS(=O)(=O)c1ccc(S(=O)(=O)N2CCCC2)cc1 > 76.9 µM
CCCc1nnc(NC(=O)c2cccc(OC)c2)s1 > 76.9 µM
COc1ccccc1N1CCN(C(=O)c2ccccc2Oc2ccccc2)CC1 > 76.9 µM
COc1cccc(C(=O)Nc2cccc(C(=O)N3CCOCC3)c2)c1 > 76.9 µM
CCN(CC(=O)N1CCOCC1)S(=O)(=O)c1ccc(C)cc1 > 76.9 µM
C=CCn1c(O)c(CN2CCN(Cc3ccccc3)CC2)c(C)c(C#N)c1=O > 76.9 µM
COc1cc(Br)cc2cc(C(=O)N3CCN(C(=O)c4ccco4)CC3)c(=O)oc12 > 76.9 µM
Cc1nc2c3c4c(sc3n3c(SCC(=O)NCc5ccco5)nnc3n2n1)COC(C)(C)C4 > 76.9 µM
COc1cccc(CSc2nnc(-c3ccc(F)cc3)o2)c1 > 76.9 µM
N#CCc1c(C#N)c(N)nc(N2CCN(S(=O)(=O)c3ccccc3)CC2)c1C#N > 76.9 µM
CN(c1ccccc1)S(=O)(=O)c1ccc(C(=O)Nc2nnc(-c3ccc(F)cc3)o2)cc1 > 76.9 µM
COC(=O)C1=C2SC(C)C(=O)N2C(N)=C(C#N)C1c1ccc(OC)c(OC)c1 (stereo not drawn) > 76.9 µM
Cc1cccc(OCCCC(=O)Nc2ccc(S(=O)(=O)Nc3onc(C)c3C)cc2)c1C > 76.9 µM
COc1ccc(-c2cc(C(=O)O)c(C)o2)cc1OC > 76.9 µM
COc1cccc(-c2nnc(Nc3nc4c(F)cccc4s3)o2)c1 > 76.9 µM
COc1cccc(-c2nnc(NC(=O)c3ccc(S(=O)(=O)N(CC(C)C)CC(C)C)cc3)o2)c1 > 76.9 µM
CCOc1ccccc1NC(=O)CCn1c(=O)oc2ccccc21 > 76.9 µM
O=C1CC(C(=O)N(c2cccc(F)c2)C(C(=O)NC2CCCC2)c2ccccn2)CS1 (stereo not drawn) > 76.9 µM
O=C(Nc1ccc(Cl)c(Cl)c1)N1CCC(N2CCCCC2)CC1 > 76.9 µM
CC(C)(C)c1cc(C(=O)O)c(CN2CCCCC2)o1 > 76.9 µM
Cn1c(CNC(=O)C(C)(C)C)nc2ccccc21 > 76.9 µM
O=c1c[n+]([O-])c2ccccc2n1OCc1c(F)cccc1F > 76.9 µM
O=C(CCc1nc2ccccc2[nH]1)Nc1ccc2c(c1)OCO2 > 76.9 µM
Cc1cc(C)c2[nH]c(=O)c(C(c3nnnn3CC3CCCO3)N3CCCC(C)C3)cc2c1 (stereo not drawn) > 76.9 µM
CC(=O)Nc1cc(C(=O)O)ccc1S(=O)(=O)c1ccc(C)cc1 > 76.9 µM
O=C(Nc1ccc2c(c1)OCO2)C1CCCN1C(=O)NCc1ccccc1 (stereo not drawn) > 76.9 µM
O=C(NC1CCS(=O)(=O)C1)c1cccc(S(=O)(=O)N2CCOCC2)c1 (stereo not drawn) > 76.9 µM
COCc1nnc(NC(=O)CSc2ccc(C)cc2)s1 > 76.9 µM
CCOC(=O)C1CCCN(C(=O)c2cnn3c(C(F)(F)F)cc(-c4ccccc4)nc23)C1 (stereo not drawn) > 76.9 µM
CCc1cc2c(=O)n(-c3ccccc3)cnc2s1 > 76.9 µM
Cc1nnc(NC(=O)c2ccc3ccccc3c2)o1 > 76.9 µM
O=C1CC(c2ccc(F)cc2)C2=C(CCCC2=O)N1 (stereo not drawn) > 76.9 µM
C=CCn1c(=O)c2ccccc2n2c(SCC(=O)NCCc3ccccc3)nnc12 > 76.9 µM
COc1cccc(CNC(=O)C2CCCN(S(=O)(=O)c3c(C)n[nH]c3C)C2)c1 (stereo not drawn) > 76.9 µM
Cc1c(C(=O)N(Cc2cccs2)C2CCS(=O)(=O)C2)oc2ccccc12 (stereo not drawn) > 76.9 µM
CCOc1ccc2c(c1)N(C(=O)CN1C(=O)CCC1=O)C(C)(C)C=C2C > 76.9 µM
CCCSc1nnc(Cc2cc(=O)[nH]c(=O)[nH]2)n1-c1cc(C)ccc1C > 76.9 µM
COc1ccc(-c2cc(N)n(CCC#N)n2)c(OC)c1 > 76.9 µM
CCC(C(=O)Nc1nc(C)cs1)c1ccccc1 (stereo not drawn) > 76.9 µM
Cc1cccc2cc(COC(=O)c3ccccc3)c(=O)[nH]c12 > 76.9 µM
CCCC(=O)N1CCN(c2ccc(NC(=O)c3ccc(Br)o3)cc2)CC1 > 76.9 µM
CCOC(=O)CC1C(=O)NC2CCCCC2N1C(=O)Nc1ccc(Cl)cc1 (stereo not drawn) > 76.9 µM
CCOC(=O)c1sc2nc(SCC(=O)NCc3ccco3)n(Cc3ccccc3)c(=O)c2c1C > 76.9 µM
Cc1cc2c(c(=O)n1C)C(Cc1ccccc1)C(C#N)=C(N)O2 (stereo not drawn) > 76.9 µM
O=C(COC(=O)C1CCCCC1)Nc1ccc(N2CCCCC2)cc1 > 76.9 µM
CC1Cc2cc(/C(O)=C3/C(=O)C(=O)N(Cc4ccco4)C3c3cccs3)ccc2O1 (stereo not drawn) > 76.9 µM
O=C(O)c1ccccc1OCCOCCOc1ccccc1C(=O)O > 76.9 µM
CC(C)(C)n1nc2c(c1NC(=O)c1cccc(C(F)(F)F)c1)CS(=O)C2 (stereo not drawn) > 76.9 µM
CC1CCN(CC(=O)NCc2ccccc2)CC1 > 76.9 µM
COc1ccccc1OCCn1c(=O)sc2ccccc21 > 76.9 µM
COc1ccc(C2=Nn3c(nnc3-c3ccccc3OC)SC2)cc1OC > 76.9 µM
CCOC(=O)C1CCCN(S(=O)(=O)Cc2ccccc2)C1 (stereo not drawn) > 76.9 µM
CCOc1ccc(CN2CCC(C(=O)N3CCN(c4ccccc4F)CC3)CC2)cc1OC > 76.9 µM
CCOC(=O)c1cc(NC(=O)c2cnccn2)cc(C(=O)OCC)c1 > 76.9 µM
C=CCc1cccc2cc(C(=O)N3CCN(C(=O)c4ccco4)CC3)c(=O)oc12 > 76.9 µM
CCCc1nc2ccccc2c(=O)n1/N=C/c1ccc(O)cc1 > 76.9 µM
CC(C)(C)c1ccccc1OCC(=O)NCCC(=O)O > 76.9 µM
O=C(CN1C(=O)c2ccccc2S1(=O)=O)Nc1ccc(S(=O)(=O)N2CCCC2)cc1 > 76.9 µM
O=C(CCN1C(=O)c2ccccc2S1(=O)=O)NCc1ccco1 > 76.9 µM
Cc1oc(-c2cc(Cl)ccc2Cl)cc1-c1nn2c(C)nnc2s1 > 76.9 µM
CCC(=O)N(CCO)Cc1cc2ccc(C)c(C)c2[nH]c1=O > 76.9 µM
NC(CC(=O)O)c1cccc(OCc2ccccc2)c1 (stereo not drawn) > 76.9 µM
CC1CCCC(NC(=O)CC2Nc3ccccc3NC2=O)C1C (stereo not drawn) > 76.9 µM
O=S(=O)(c1ccc(Oc2ncnc3scc(-c4ccccc4)c23)cc1)N1CCOCC1 > 76.9 µM
O=C(CN1C(=O)c2ccccc2S1(=O)=O)NCCSc1ccccc1 > 76.9 µM
CCn1c(C)nc2c(=O)oc3ccccc3c21 > 76.9 µM
CCC(c1nnnn1Cc1ccccc1)N(Cc1ccco1)Cc1cc2cc(OC)ccc2[nH]c1=O (stereo not drawn) > 76.9 µM
CCC(C)N(C(=O)Cn1nnc2ccccc21)C(C(=O)NCc1ccco1)c1cccc(OC)c1 (stereo not drawn)
CCOC(=O)CN(C(=O)Cn1nnc2ccccc21)C(C(=O)NCCOC)c1ccccc1 (stereo not drawn) > 76.9 µM
Cc1ccc(NC(=O)C2CCCN2C(=O)Oc2ccccc2)cc1 (stereo not drawn) > 76.9 µM
COc1c2c(nc3occc13)C(CCC(C)(C)O)(OC)C(O)CC2 (stereo not drawn) > 76.9 µM
CCOC(=O)CNC(=O)CSc1ncnc2c1cnn2-c1ccc(Cl)cc1 > 76.9 µM
CC(C)N1C(=O)CN(C2CCCCCC2)C(=O)C1c1ccccc1F (stereo not drawn) > 76.9 µM
C=CCOC(=O)C1=C(C)N=C2SCCC(=O)N2C1c1cccs1 (stereo not drawn) > 76.9 µM
CCOC(=O)CSc1nc2ccccc2c(=O)n1C1CCCC1 > 76.9 µM
CC1=C(C#N)C(c2cn(-c3ccccc3)nc2-c2cccs2)C(C#N)=C(C)N1
CCOC(=O)C1C(=O)OC2(CCCC2)C1C(=O)OCC (stereo not drawn) > 76.9 µM
CNC(=O)CC(C(=O)O)c1ccc(OCC(C)C)cc1 (stereo not drawn) > 76.9 µM

Reference: PubChem BioAssay AID360 (National Center for Advancing Translational Sciences (NCATS), 2006)
